{"source": "the supplement of paper PMC12645437", "about": "“Orthogonal IMiD-Degron Pairs Induce Selective Protein Degradation in Cells” (ACS Chemical Biology, 2025)", "note": "The list shows a part of the results.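 Further: jurkat cells carrying a lentiviral library of mutant zinc finger degrons fused to EGFP plus mCherry, mCherry+ cells FACS sorted, degron abundance counted by next-generation sequencing.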"}
{"molecular_target": "no compound (DMSO)", "experiment": "log2 fold change of degron read counts, EGFP-low vs EGFP+ sorted cells; higher = lower degron-EGFP level without compound (poor expression or instability)", "settings": "compound: DMSO control; 18 h"}
{"sequence": "FWCPICGHCFTQKGNLLRHIKL", "log2 fold change of degron read counts": 1.83}
{"sequence": "FWCNQCGAFFTQKGNLLRHIKL", "log2 fold change of degron read counts": 1.67}
{"sequence": "FACPICGACFTQKGNLLRHIKL", "log2 fold change of degron read counts": -0.0962}
{"sequence": "FLCPQCGAPFTQKGNLLRHIKL", "log2 fold change of degron read counts": -0.475}
{"sequence": "LDCPICGFSCTQKGNLLRHIKL", "log2 fold change of degron read counts": 0.0451}
{"sequence": "FDCPICGRPFTQKGNLLRHIKL", "log2 fold change of degron read counts": -0.619}
{"sequence": "FLCDVCGAAFTQKGNLLRHIKL", "log2 fold change of degron read counts": -0.302}
{"sequence": "FWCPICGALFTQKGNLLRHIKL", "log2 fold change of degron read counts": 1.13}
{"sequence": "FKCEQCGANFTQKGNLLRHIKL", "log2 fold change of degron read counts": -0.657}
{"sequence": "FWCPICGRFFTQKGNLLRHIKL", "log2 fold change of degron read counts": 0.773}
{"sequence": "FFCDVCGAVFTQKGNLLRHIKL", "log2 fold change of degron read counts": 0.407}
{"sequence": "LTCEICGFQCTQKGNLLRHIKL", "log2 fold change of degron read counts": -0.846}
{"sequence": "FECSVCGHDFTQKGNLLRHIKL", "log2 fold change of degron read counts": -0.974}
{"sequence": "LRCPICGFICTQKGNLLRHIKL", "log2 fold change of degron read counts": 0.869}
{"sequence": "FHCPICGRPFTQKGNLLRHIKL", "log2 fold change of degron read counts": -0.313}
{"sequence": "FCCNQCGAQFTQKGNLLRHIKL", "log2 fold change of degron read counts": -1.59}
{"sequence": "FKCNQCGRFFTQKGNLLRHIKL", "log2 fold change of degron read counts": -0.109}
{"sequence": "FNCEVCGACFTQKGNLLRHIKL", "log2 fold change of degron read counts": -2.42}
{"sequence": "LNCEICGFQCTQKGNLLRHIKL", "log2 fold change of degron read counts": -0.703}
{"sequence": "FICDICGAVFTQKGNLLRHIKL", "log2 fold change of degron read counts": -0.774}
{"sequence": "FSCNQCGACFTQKGNLLRHIKL", "log2 fold change of degron read counts": -0.247}
{"sequence": "FSCNICGARFTQKGNLLRHIKL", "log2 fold change of degron read counts": 0.025}
{"sequence": "FICDVCGAHFTQKGNLLRHIKL", "log2 fold change of degron read counts": -2.26}
{"sequence": "FMCPVCGAVFTQKGNLLRHIKL", "log2 fold change of degron read counts": 0.126}
{"sequence": "FYCDVCGANFTQKGNLLRHIKL", "log2 fold change of degron read counts": -1.15}
{"sequence": "FQCPICGALFTQKGNLLRHIKL", "log2 fold change of degron read counts": 0.53}
{"sequence": "FLCEVCGAGFTQKGNLLRHIKL", "log2 fold change of degron read counts": -1.12}
{"sequence": "FFCEICGAKFTQKGNLLRHIKL", "log2 fold change of degron read counts": -0.797}
{"sequence": "LDCEICGFKCTQKGNLLRHIKL", "log2 fold change of degron read counts": 0.00932}
{"sequence": "FLCNVCGAQFTQKGNLLRHIKL", "log2 fold change of degron read counts": -0.732}
{"sequence": "FQCPVCGANFTQKGNLLRHIKL", "log2 fold change of degron read counts": -0.504}
{"sequence": "LSCPICGFRCTQKGNLLRHIKL", "log2 fold change of degron read counts": 0.858}
